Laboratory results from PMC8589317.
Results are given in words; binding and its absence hold for the method and conditions named. In cells and extracts the contact can be indirect. Some results given as binding are weak or reduced against the parent protein; the word gives no strength.

Chains of the proteins cited; added tags and fusions are not shown. Lines headed by an entry give the natural chain unless they say otherwise; changes in a name come on top. A line that says so, or that is headed by a name, gives the form on record, which may keep a tag or linker. Residues count along the entry.
UniProt P31749: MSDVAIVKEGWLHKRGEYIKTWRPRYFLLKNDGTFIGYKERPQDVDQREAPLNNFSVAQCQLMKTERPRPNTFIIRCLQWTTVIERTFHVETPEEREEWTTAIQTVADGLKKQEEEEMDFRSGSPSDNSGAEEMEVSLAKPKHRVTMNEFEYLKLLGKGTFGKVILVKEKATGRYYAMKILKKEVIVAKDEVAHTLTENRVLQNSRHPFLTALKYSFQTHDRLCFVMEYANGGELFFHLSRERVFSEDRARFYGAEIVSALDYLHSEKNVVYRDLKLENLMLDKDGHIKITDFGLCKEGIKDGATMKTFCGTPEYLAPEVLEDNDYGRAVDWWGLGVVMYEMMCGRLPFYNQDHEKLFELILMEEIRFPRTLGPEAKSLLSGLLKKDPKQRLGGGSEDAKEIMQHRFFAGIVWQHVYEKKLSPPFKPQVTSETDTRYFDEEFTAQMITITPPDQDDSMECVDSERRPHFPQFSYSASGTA
UniProt Q16659: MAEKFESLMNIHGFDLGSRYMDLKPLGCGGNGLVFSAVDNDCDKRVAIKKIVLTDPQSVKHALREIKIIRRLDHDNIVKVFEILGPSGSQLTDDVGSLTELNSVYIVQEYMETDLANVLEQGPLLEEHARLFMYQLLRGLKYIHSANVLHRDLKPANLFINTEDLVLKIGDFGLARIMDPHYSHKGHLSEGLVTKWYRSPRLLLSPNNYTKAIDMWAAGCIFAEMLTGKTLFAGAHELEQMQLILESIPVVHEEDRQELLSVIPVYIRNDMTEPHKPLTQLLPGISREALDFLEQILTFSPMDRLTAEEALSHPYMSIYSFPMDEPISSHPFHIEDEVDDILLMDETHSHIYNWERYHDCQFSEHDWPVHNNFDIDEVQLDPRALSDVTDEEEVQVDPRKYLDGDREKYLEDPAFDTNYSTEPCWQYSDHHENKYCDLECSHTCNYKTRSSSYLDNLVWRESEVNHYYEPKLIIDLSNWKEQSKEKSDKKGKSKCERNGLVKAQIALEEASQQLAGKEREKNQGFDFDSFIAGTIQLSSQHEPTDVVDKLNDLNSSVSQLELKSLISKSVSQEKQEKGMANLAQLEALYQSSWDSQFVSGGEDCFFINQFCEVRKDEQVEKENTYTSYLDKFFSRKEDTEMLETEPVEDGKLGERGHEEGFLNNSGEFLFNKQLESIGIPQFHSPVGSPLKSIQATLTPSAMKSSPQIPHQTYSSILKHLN
FLAG/His-tagged MAPK6 fragment 1-480: residues 1-480 of Q16659
FLAG/His-tagged MAPK6 fragment 1-439: residues 1-439 of Q16659
FLAG/His-tagged MAPK6 fragment 1-408: residues 1-408 of Q16659
FLAG/His-tagged MAPK6 fragment 1-389: residues 1-389 of Q16659
FLAG/His-tagged MAPK6 fragment 1-384: residues 1-384 of Q16659
FLAG/His-tagged MAPK6 fragment 1-379: residues 1-379 of Q16659
FLAG/His-tagged MAPK6 fragment 1-373: residues 1-373 of Q16659
FLAG/His-tagged MAPK6 fragment 1-362: residues 1-362 of Q16659
FLAG/His-tagged MAPK6 kinase domain fragment 1-316: residues 1-316 of Q16659
FLAG/His-tagged MAPK6 fragment 317-721 (C34 and C-terminal tail): residues 317-721 of Q16659
FLAG/His-tagged MAPK6 C34 region fragment 317-480: residues 317-480 of Q16659
FLAG/His-tagged MAPK6 C-terminal tail fragment 481-721: residues 481-721 of Q16659
full-length MAPK6 with DIDE mutated to KIKK (D/E3K), FLAG/His-tagged (Q16659, form named): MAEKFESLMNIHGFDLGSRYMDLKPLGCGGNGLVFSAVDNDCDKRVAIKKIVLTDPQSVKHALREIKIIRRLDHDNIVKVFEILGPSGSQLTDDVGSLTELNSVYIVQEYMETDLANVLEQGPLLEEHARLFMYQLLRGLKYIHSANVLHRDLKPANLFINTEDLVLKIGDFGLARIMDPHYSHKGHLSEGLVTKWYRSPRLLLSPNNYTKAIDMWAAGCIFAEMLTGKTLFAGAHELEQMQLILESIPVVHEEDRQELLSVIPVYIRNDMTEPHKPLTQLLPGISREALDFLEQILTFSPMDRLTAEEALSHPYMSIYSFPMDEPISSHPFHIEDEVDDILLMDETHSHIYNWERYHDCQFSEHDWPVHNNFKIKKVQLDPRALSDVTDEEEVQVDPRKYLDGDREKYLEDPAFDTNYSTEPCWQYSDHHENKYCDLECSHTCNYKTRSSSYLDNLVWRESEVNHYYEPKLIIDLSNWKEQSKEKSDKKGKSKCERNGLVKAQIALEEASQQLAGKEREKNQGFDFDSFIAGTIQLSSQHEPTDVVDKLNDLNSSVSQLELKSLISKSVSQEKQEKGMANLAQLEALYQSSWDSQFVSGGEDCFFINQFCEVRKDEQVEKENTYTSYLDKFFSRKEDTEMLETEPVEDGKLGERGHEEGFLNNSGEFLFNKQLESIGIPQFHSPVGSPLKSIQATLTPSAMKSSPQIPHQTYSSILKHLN
FLAG/His-tagged MAPK6 mutant with EEDRQE mutated to AAARAA (D/E/Q-5A) (Q16659, form named): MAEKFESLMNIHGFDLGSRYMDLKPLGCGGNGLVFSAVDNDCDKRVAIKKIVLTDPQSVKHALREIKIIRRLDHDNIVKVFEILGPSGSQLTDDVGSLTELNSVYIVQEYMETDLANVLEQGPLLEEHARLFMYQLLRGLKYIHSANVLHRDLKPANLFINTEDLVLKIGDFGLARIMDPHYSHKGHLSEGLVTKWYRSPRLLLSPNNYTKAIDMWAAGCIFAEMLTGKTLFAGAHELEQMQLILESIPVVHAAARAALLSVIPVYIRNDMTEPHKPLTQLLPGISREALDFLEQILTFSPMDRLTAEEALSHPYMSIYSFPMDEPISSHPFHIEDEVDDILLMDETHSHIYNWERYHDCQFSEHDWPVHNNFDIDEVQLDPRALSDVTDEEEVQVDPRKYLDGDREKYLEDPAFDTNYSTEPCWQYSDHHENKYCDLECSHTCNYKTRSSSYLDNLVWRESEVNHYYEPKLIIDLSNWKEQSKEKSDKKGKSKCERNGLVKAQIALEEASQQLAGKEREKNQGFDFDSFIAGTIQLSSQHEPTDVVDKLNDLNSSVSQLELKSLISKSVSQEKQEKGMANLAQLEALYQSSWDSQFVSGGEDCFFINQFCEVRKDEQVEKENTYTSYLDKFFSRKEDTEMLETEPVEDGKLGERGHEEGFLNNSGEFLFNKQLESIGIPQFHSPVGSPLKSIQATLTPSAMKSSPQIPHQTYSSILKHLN
full-length MAPK6 with 363 to 379 deletion, FLAG-tagged (Q16659, form named): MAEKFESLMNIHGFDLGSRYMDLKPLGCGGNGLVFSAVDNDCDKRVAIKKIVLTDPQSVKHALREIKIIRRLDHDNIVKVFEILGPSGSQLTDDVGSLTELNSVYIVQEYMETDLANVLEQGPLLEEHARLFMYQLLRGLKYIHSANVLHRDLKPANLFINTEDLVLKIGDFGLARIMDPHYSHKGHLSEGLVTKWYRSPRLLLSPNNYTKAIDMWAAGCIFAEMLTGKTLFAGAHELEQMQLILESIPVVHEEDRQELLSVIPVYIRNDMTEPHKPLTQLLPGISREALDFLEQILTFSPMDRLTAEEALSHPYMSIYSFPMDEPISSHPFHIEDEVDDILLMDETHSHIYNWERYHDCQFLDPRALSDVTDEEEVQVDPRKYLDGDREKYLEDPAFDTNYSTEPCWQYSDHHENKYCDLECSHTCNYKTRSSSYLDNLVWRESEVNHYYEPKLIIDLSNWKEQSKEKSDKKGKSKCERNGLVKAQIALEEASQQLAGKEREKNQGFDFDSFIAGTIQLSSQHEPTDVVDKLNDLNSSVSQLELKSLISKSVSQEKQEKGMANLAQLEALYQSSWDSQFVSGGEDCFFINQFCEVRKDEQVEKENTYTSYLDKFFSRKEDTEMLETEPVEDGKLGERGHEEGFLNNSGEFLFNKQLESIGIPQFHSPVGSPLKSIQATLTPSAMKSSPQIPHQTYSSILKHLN
FLAG/His-tagged MAPK6 1-384 with DIDE mutated to KIKK (D/E3K) (Q16659, form named): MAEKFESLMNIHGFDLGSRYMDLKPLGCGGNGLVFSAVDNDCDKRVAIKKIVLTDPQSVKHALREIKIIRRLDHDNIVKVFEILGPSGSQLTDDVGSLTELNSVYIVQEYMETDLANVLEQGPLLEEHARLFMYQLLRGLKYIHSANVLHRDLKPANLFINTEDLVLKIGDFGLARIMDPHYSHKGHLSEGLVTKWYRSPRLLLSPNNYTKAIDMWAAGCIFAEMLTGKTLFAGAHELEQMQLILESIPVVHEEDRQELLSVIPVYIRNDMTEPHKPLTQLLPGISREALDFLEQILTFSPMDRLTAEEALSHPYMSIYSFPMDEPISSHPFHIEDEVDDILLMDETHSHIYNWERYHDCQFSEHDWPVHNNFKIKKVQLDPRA

Legend:
[1] = target: FLAG-tagged AKT1 (UniProt P31749); assay: co-IP; AKT1-FLAG precipitated with anti-FLAG M2 affinity gel, Western blot for HA (MAPK6-HA); lysates of transfected HEK293T or MAPK4-KO HCT116 cells, 48 hours after transfection
[2] = target: FLAG-tagged AKT1 (in MAPK4-KO HCT116 cells) (UniProt P31749); assay: as above
[3] = target: FLAG/His (FH)-tagged MAPK6, wild type, full length (human) (UniProt Q16659); assay: co-IP; FH-tagged MAPK6 (wild type, mutants, fragments) precipitated with anti-FLAG M2 affinity gel, Western blot for AKT (AKT1-His); lysates of transfected HEK293T cells, 48 hours after transfection
[4] = target: FLAG/His-tagged MAPK6 C34 region fragment 317-480 (human) (UniProt Q16659); assay: as above
[5] = target: FLAG/His-tagged MAPK6 fragment 1-480 (human) (UniProt Q16659); assay: as above
[6] = target: FLAG/His-tagged MAPK6 fragment 1-373 (human) (UniProt Q16659); assay: as above
[7] = target: full-length MAPK6 with DIDE mutated to KIKK (D/E3K), FLAG/His-tagged (human) (UniProt Q16659); assay: as above
[8] = target: FLAG/His-tagged MAPK6 mutant with EEDRQE mutated to AAARAA (D/E/Q-5A) (human) (UniProt Q16659); assay: as above
[9] = target: full-length MAPK6 with 363 to 379 deletion, FLAG-tagged (human) (UniProt Q16659); assay: as above
[10] = target: FLAG/His-tagged MAPK6 fragment 1-384 (human) (UniProt Q16659); assay: as above
[11] = target: FLAG/His-tagged MAPK6 1-384 with DIDE mutated to KIKK (D/E3K) (human) (UniProt Q16659); assay: as above
[12] = target: FLAG/His-tagged MAPK6 fragment 1-379 (human) (UniProt Q16659); assay: as above
[13] = target: FLAG/His-tagged MAPK6 fragment 317-721 (C34 and C-terminal tail) (human) (UniProt Q16659); assay: as above
[14] = target: FLAG/His-tagged MAPK6 fragment 1-362 (human) (UniProt Q16659); assay: as above
[15] = target: FLAG/His-tagged MAPK6 C-terminal tail fragment 481-721 (human) (UniProt Q16659); assay: as above
[16] = target: FLAG/His-tagged MAPK6 fragment 1-408 (human) (UniProt Q16659); assay: as above
[17] = target: FLAG/His-tagged S189A mutant MAPK6 (human) (UniProt Q16659); assay: as above
[18] = target: FLAG/His-tagged MAPK6 fragment 1-439 (human) (UniProt Q16659); assay: as above
[19] = target: FLAG/His-tagged MAPK6 kinase domain fragment 1-316 (human) (UniProt Q16659); assay: as above
[20] = target: FLAG/His-tagged MAPK6 fragment 1-389 (human) (UniProt Q16659); assay: as above

In the case of “HA-tagged MAPK6 (from UniProt Q16659 1-721) (enzyme)”, the binding [1] is reported as “binds”.

With “HA-tagged MAPK6 (in MAPK4-KO HCT116 cells) (from UniProt Q16659 1-721) (enzyme)” the binding [2] was “binds”.

With “His-tagged AKT1 (from UniProt P31749 1-480) (enzyme)” the binding [3] was “binds”, the binding [4] was “binds” and the binding [5] was “binds”. The binding [6] was “no binding”, the binding [7] was “binds” and the binding [8] was “binds”. The binding [9] was “binds”, the binding [10] was “binds” and the binding [11] was “no binding”. The binding [12] was “binds”, the binding [13] was “binds” and the binding [14] was “no binding”. The binding [15] was “binds”, the binding [16] was “binds” and the binding [17] was “binds”. The binding [18] was “binds”, the binding [19] was “no binding” and the binding [20] was “binds”.
